The record followed here is patent US20260028401A1 (SHENGHE CHINA BIOPHARMACEUTICAL, published 2026).

The target of the experiment is T1, ILT4 on CHO-ILT4 cells (Manufacturer: Kang Yuan Bochuang, Cat: KC-1473) (UniProt Q8N423 22-597, limits assumed).
T1 construct: whole, on cells; also called ILT4 cell line
The experiment is described as follows: flow cytometry on CHO-ILT4 cells, 7-point 5-fold titration, anti-human IgG Fc detection. In general terms: In flow cytometry, cells or beads pass a laser one at a time.

What is called EC50 is the concentration that produces a half-maximal response. Higher therefore signals lower potency in that assay.

T1 sequence (Q8N423 22-597 limits assumed): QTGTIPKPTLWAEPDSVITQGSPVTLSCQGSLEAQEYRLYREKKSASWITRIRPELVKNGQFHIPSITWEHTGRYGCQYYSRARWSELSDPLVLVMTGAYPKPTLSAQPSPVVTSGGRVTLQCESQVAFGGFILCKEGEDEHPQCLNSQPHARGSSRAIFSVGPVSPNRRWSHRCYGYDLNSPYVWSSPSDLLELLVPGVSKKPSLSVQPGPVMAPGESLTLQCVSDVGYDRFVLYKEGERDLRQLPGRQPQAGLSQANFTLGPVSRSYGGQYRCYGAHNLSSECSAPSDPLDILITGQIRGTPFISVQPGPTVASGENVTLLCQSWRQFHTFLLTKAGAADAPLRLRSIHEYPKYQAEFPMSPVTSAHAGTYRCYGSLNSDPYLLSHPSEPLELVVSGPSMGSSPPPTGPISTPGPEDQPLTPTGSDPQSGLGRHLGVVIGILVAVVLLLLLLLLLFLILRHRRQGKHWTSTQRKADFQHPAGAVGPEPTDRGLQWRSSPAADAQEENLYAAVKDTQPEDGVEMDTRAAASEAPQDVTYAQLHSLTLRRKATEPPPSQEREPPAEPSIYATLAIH

B1: the antibody (chimeric antibody) of the present invention (VHH SEQ ID NO: 4 and Fc SEQ ID NO: 7) (Fc fusion)
chain: EVQLVESGGGLGQAGGSLRLSCVVSGRTFSRYAMGWFRQAPGKEREFVAAISWSPGDITTYADSVRGRFTISRDNAKNTVYLQMNSLKPEDTAVYYCAADPTAWGTQYDYWGQGTQVTVSS[human IgG4 Fc with S228P (EU numbers) not shown]
notes: VHH-Fc; Detected with an anti-human IgG Fc-gamma secondary antibody; The control was an irrelevant IgG4
For the molecule B1, the 50% effective concentration (EC50) worked out at 0.057 µg/mL.
